Laboratory results from PMC12136788.
The other results are listed elsewhere or left out.

T1: UNK ZnF1-3 (human, UniProt Q9C0B0 31-174)
T1 sequence: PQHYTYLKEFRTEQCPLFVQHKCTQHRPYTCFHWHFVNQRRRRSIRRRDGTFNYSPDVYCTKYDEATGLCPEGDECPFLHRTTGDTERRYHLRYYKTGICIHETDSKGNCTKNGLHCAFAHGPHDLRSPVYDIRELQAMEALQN

B1: chr14:21319760:21319761:-_ENSMUSG00000021816_ENSMUST00000161445|mus_mus|FALSE|FALSE (ssRNA)
RNA: GGGAGUUCUACAGUCCGACGAUCAGCCAGCAGCAAAUCACCCUGGUGGUUUUUAAAGCAACUGGAGUACUCACAAUAAACUAAAAUUUCUCAUAAUAUCUACGUAACCUAUACAUGUUGUACCUGUACAUCAUAGGUCUAUAUCAACAGAGGAUUGAGCAUCA
B2: chr3:88113163:88113164:+_ENSMUSG00000001416_ENSMUST00000001452|mus_mus|motif|central (ssRNA)
RNA: GGGAGUUCUACAGUCCGACGAUCCAGUGCAAUGUUGCAUGCCAAGGAGGACCACCGACUGAUGACUUUUGUAGUAAUAGAGCGGUUGAUGAUGCUCAACAUCAUCUCACGGUUAUUGACAUCAACAGGAGUACUGAUUUUCUUCAACAGAGGAUUGAGCAUCA
B3: chr20:43533720:43533721:+_ENSG00000166913_ENST00000353703|hu_hu|FALSE|FALSE (ssRNA)
RNA: GGGAGUUCUACAGUCCGACGAUCAAAUGCCGUUUUUGCCAGGCUACAGGCCUUUUCAGGAGAGUUUAGAAUCUCAUAGUAAAAGACUGAGAAAUUUAGUGCCAGACCAAGACGAAUUGGGUGUGUAGGCUGCAUUUCUUUCUUCAACAGAGGAUUGAGCAUCA
B4: 97386883_97387435_3001_CDS_ENSMUSG00000038453_ENSMUST00000107596|mouse|control|control (ssRNA)
RNA: GGGAGUUCUACAGUCCGACGAUCCGCAGCCUCAACAGACACAGCUUUGUCCGUGUUUCUCUUGCUGGAAGCAUCCAGGCCUUUGGUGGGGUUAGUGCUCUUUGGGGUGAGAGGGGUGCCUUCGGCAGGUCCACUCAGCUCGUGCAACAGAGGAUUGAGCAUCA
B5: chr1:225611761:225611762:-_ENSG00000143815_ENST00000272163|hu_mus|hu_hu_hu_mus_True|98_108 (ssRNA)
RNA: GGGAGUUCUACAGUCCGACGAUCCCAGGCCAUCGACCUCUUACCACUUCACCCUCAACAAACUUCCUACUUGGCAUUUUCUAAAAUUAGUCUGGCCGCGCUCCGGCGGGAACUCCAGCCACUCCAGGACAGUCACCAGCAGCCCAACAGAGGAUUGAGCAUCA
B6: chr9:48874791:48874792:+_ENSMUSG00000032264_ENSMUST00000034803|mus_hu|FALSE|FALSE (ssRNA)
RNA: GGGAGUUCUACAGUCCGACGAUCAAGCAUCUCAGCCAAUGGGACAGUAGAUGUUUUUUCAUUUUCCAGGUCAGUGUCAAGUGGCAAAUCUAGAAGCUGUUUCUGGAGCACUUCUAGUACCAGUCUGAUCUUUGUAAAAACUUCCAACAGAGGAUUGAGCAUCA
B7: chr11:100581416:100581417:-_ENSMUSG00000019173_ENSMUST00000107364|mus_hu|motif|central (ssRNA)
RNA: GGGAGUUCUACAGUCCGACGAUCCCCGCCAUUGCCCGUCCAGCUGUAGUGGUCCAGAGAGCGUGCGGGUGGGGACUGGUGCGGUGCAAAGAGGCACUUAGUGGGGAGGGGGACCUCCAAGGCGGCUCCGGGGCGGCGGCGUUACAACAGAGGAUUGAGCAUCA
B8: chr5:21408736:21408737:-_ENSMUSG00000042453_ENSMUST00000161356|mus_mus|motif|central (ssRNA)
RNA: GGGAGUUCUACAGUCCGACGAUCGUUGACAGCAUUAUAAAUGGUGGCUUCAUGGAACUGGAACGGGGAGCAGCCAAUGCGGUUGGAAGAGGAAGGUAGGCACUGGGUCUGCACGAGCUGCCAGGAAUCGGACCUUGCAUCCUUCAACAGAGGAUUGAGCAUCA
B9: 54675199_54675611_138_CDS_ENSG00000135486_ENST00000330752|human|control|control (ssRNA)
RNA: GGGAGUUCUACAGUCCGACGAUCCCUGGAGCGCUUGGUGUUUGGAUCUCUCAUUACCACACAGUCCGUGAGCGUUCCCCAUUGCUCAAAAUGGCUCCUCAGGCUCUCAUCAGUUGUUUCAAAGCUCAACCCUCCAAUGAAGAGCAACAGAGGAUUGAGCAUCA
B10: chr1:130485734:130485735:-_ENSMUSG00000045382_ENSMUST00000052172|mus_mus|mus_mus_mus_hu_False|58_78 (ssRNA)
RNA: GGGAGUUCUACAGUCCGACGAUCGAUGAAGGAGUCGAUGCUGAUCCCAAUGUAGUAUGGCAGCCAGCAGGCGAAGAAAGCUAGGAUGAGGAUGACUGUGGUCUUGAGGGCCUUGCGCUUCUGGUGGCCCUUGGAGUGUGACAGCAACAGAGGAUUGAGCAUCA
B11: chr19:8913615:8913616:-_ENSMUSG00000071658_ENSMUST00000096259|mus_hu|mus_mus_mus_hu_False|8_48 (ssRNA)
RNA: GGGAGUUCUACAGUCCGACGAUCAGGGUACCAAAACCUUCUGCCUGAAAUGGGUGCCCCACCCAGUAGGGAGUUGCAGCUGAAAGUAUCCGUAGCAGAAGCAGUGACUAUACGAAAGGAGGCCCCUGAUGCUCAGAAGGCCAGCAACAGAGGAUUGAGCAUCA
B12: chr8:35894304:35894305:-_ENSMUSG00000031529_ENSMUST00000033929|mus_hu|FALSE|FALSE (ssRNA)
RNA: GGGAGUUCUACAGUCCGACGAUCCACAAAAAAACAAAAAACAAACAAACAAUAGCCAAUGAUGCAUGUCUGGCAAAUCAAAAACAAGCUUGUUGCCUGUCGUAUGUGUAUAUUUGUUAUAGACACGUCAUGCAUAACAAAACACAACAGAGGAUUGAGCAUCA
B13: chr17:16285243:16285244:+_ENSG00000170315_ENST00000535788|hu_hu|FALSE|FALSE (ssRNA)
RNA: GGGAGUUCUACAGUCCGACGAUCUCACAUUUUCGAUGGUGUCACUGGGCUCCACCUCAAGGGUGAUGGUCUUGCCGGUAAGGGUUUUCACGAAGAUCUGCAUUUUGACCUGUUAGCGGAUACCAGGAUCCUGCCAAUCACCAACAACAGAGGAUUGAGCAUCA
B14: 58046153_58046273_1771_CDS_ENSMUSG00000051243_ENSMUST00000114144|mouse|control|control (ssRNA)
RNA: GGGAGUUCUACAGUCCGACGAUCCCACUGAACUGCCGUGCCACCCCCCGCAGGACACAGAUAGAGUAGGCGCAGUGGCCGCCUCCCCGGCCGCCGCGCUCCGCUAGCACCAUCUGGCCCAGGGCCCCAGCGCGCAGCAAGAGGCAACAGAGGAUUGAGCAUCA

target: T1, UNK ZnF1-3; assay: nsRBNS (natural sequence RNA bind-n-seq); RBNS binding buffer (assumed for nsRBNS): 25 mM Tris pH 7.5, 150 mM KCl, 3 mM MgCl2, 0.01% Triton X-100, 500 ug/ml BSA, 20 U/ml SUPERase-In, 4 C; UNK is unkempt and MSI1 is Musashi-1; names of the RNAs are library labels; protein concentration not given here; high values mean tight binding

| Binder | binding signal [enrichment R] |
| --- | --- |
| B1 | 1.52 |
| B2 | 0.875 |
| B3 | 1.08 |
| B4 | 0.922 |
| B5 | 1.37 |
| B6 | 0.939 |
| B7 | 1.4 |
| B8 | 1.62 |
| B9 | 0.908 |
| B10 | 1.32 |
| B11 | 0.907 |
| B12 | 0.724 |
| B13 | 0.668 |
| B14 | 0.976 |
